What is called pIC50 is the negative decadic logarithm of the IC50, by convention in mol/L.

pIC50: −log10 of the molar value.

Sequence of UniProt O14744 (O14744 whole entry): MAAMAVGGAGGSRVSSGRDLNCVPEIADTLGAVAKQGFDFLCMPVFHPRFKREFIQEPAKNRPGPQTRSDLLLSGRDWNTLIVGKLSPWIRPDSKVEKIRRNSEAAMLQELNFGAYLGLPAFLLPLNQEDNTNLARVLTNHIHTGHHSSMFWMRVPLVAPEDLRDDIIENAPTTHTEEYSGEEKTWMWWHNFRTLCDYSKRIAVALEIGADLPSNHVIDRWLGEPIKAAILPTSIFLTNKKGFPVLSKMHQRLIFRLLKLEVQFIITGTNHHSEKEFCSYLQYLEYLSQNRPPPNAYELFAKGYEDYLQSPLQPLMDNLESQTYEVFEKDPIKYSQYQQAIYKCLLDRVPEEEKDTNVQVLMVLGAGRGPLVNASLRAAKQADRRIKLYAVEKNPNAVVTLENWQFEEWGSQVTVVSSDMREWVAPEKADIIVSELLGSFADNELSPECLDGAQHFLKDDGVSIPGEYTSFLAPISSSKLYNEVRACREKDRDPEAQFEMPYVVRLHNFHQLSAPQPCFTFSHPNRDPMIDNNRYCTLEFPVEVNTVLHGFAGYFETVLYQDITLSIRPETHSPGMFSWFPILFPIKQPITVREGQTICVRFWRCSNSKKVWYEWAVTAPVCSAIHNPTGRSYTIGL
Sequence of UniProt O14744 (Q9BQA1 whole entry partner): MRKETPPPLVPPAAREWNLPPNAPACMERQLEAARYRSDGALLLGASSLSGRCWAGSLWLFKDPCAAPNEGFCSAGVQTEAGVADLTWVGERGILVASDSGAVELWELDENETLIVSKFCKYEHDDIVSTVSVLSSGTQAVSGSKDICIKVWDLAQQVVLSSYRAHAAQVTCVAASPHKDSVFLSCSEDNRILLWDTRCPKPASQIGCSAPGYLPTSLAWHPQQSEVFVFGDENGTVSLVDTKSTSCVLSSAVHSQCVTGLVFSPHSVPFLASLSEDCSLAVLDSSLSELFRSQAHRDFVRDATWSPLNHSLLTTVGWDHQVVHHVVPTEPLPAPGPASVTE

For the experiment, the target named is PRMT5/MEP50 Complex (Homo sapiens (Human), UniProt O14744). As to the kind of experiment: PRMT5 inhibition based on TR-FRET assay. It counts as biochemical. The following applies: 32 nM PRMT5:MEP50, 50 nM Histone-H4 peptide, 1 μM SAM. The text has this: PRMT5 Inhibition Based on TR-FRET Assay:
Protein arginine methyltransferase 5 (PRMT5) is a type II arginine methyltransferase that catalyze mono- and symmetric demethylation on arginine residues of histone or non-histone proteins in presence of S-adenosylmethionine (AdoMet or SAM) a cofactor responsible for donating the methyl group. PRMT5 is reported to be overexpressed in several human cancers. To identify compounds that inhibit the PRMT5 and decrease its activity, a TR-FRET based assay has been established. Time-resolved fluorescence resonance energy transfer (TR-FRET) HTS assays are homogeneous proximity assays where the interaction of two dye-labeled binding partners is detected by the energy transfer between a donor and an acceptor dye and the subsequent light emission by the acceptor dye. PRMT5 catalyzes Histone H4 peptide which is biotin tagged to the Lysine amino acid at carboxyl end, in presence of S-adenosyl-1-methionine (SAM) to methylate the peptide. The antibody specific to mono methylated H4 peptide (H4R3) with Ig conjugate binds to the methylated peptide, indirectly binding to the Europium lanthanide. SureLight Allophycocyanin-Streptavidin binds to the biotin tag of the peptide, therefore accepting the energy transferred from the Europium lanthanide. This energy transfer between Europium to SureLight Allophycocyanin is a direct measure of the activity/inhibition of the PRMT5 enzyme.
Assay buffer: 20 mM BICINE (pH 7.6), 25 mM NaCl, 2 mM DTT, 0.01% Tween-20 and 0.01% BSA.
The compound dilutions were prepared as 7.5% DMSO stock solutions in assay buffer. To 2 μL (7.5×) of test compound, 5 μL of PRMT5 enzyme prepared in assay buffer (Final concentration of 32 nM in 15 μL reaction volume) was added and allowed for 30 minutes pre-incubation time in a white polystyrene 384-well plate at room temperature. […] The plates were then read on Victor-3 with Excitation at 340 nm and Emissions collected at 615 and 665 nm in TR-FRET protocol. […]
On the technique in general: Time-resolved FRET reads energy transfer from a long-lived donor to a nearby acceptor.
As for `CC(C)c1ccc(CN2C(=O)N(CC(O)CN3CCc4ccccc4C3)C(C)(C)C2=O)cn1` (stereo not drawn) [Example 29, 1-(3-(3,4-Dihydroisoquinolin-2(1H)-yl)-2-hydroxypropyl)-3-((6-isopropylpyridin-3-yl)methyl)-5,5-dimethylimidazolidine-2,4-dione], the pIC50 was 6.92.
Compound `CC(C)c1ccc(CN2C(=O)N(CC(O)CN3CCc4ccccc4C3)C(C)(C)C2=O)nc1` (stereo not drawn) [Example 30, 1-(3-(3,4-Dihydroisoquinolin-2(1H)-yl)-2-hydroxypropyl)-3-((5-isopropylpyridin-2-yl)methyl)-5,5-dimethylimidazolidine-2,4-dione] showed a pIC50 of 6.89.
Compound `CC(C)c1ccc(CN2CCN(CC(O)CN3CCc4ccccc4C3)C2=O)nc1` (stereo not drawn) [Example 31, 1-(3-(3,4-Dihydroisoquinolin-2(1H)-yl)-2-hydroxypropyl)-3-((5-isopropylpyridin-2-yl)methyl)imidazolidin-2-one] showed a negative logarithm of the IC50 (pIC50) of 7.30. Compared with the last compound, the pIC50 is 0.41 log units higher.

Values taken from US11365205B2 (Aurigene Discovery Technologies Limited, priority 2018, dated 2022).
